These are yes or no findings as the source states them, for the method shown. In cells and extracts the contact can be indirect. Some entries that bind do so weakly or less than the wild type. For some assays here: Sequences can lack the tags named with a protein.

Test [1] deals with T1, Human ABCC4 with an amino terminal Ac-GFP fusion protein (human) (UniProt O15439).
T1 sequence: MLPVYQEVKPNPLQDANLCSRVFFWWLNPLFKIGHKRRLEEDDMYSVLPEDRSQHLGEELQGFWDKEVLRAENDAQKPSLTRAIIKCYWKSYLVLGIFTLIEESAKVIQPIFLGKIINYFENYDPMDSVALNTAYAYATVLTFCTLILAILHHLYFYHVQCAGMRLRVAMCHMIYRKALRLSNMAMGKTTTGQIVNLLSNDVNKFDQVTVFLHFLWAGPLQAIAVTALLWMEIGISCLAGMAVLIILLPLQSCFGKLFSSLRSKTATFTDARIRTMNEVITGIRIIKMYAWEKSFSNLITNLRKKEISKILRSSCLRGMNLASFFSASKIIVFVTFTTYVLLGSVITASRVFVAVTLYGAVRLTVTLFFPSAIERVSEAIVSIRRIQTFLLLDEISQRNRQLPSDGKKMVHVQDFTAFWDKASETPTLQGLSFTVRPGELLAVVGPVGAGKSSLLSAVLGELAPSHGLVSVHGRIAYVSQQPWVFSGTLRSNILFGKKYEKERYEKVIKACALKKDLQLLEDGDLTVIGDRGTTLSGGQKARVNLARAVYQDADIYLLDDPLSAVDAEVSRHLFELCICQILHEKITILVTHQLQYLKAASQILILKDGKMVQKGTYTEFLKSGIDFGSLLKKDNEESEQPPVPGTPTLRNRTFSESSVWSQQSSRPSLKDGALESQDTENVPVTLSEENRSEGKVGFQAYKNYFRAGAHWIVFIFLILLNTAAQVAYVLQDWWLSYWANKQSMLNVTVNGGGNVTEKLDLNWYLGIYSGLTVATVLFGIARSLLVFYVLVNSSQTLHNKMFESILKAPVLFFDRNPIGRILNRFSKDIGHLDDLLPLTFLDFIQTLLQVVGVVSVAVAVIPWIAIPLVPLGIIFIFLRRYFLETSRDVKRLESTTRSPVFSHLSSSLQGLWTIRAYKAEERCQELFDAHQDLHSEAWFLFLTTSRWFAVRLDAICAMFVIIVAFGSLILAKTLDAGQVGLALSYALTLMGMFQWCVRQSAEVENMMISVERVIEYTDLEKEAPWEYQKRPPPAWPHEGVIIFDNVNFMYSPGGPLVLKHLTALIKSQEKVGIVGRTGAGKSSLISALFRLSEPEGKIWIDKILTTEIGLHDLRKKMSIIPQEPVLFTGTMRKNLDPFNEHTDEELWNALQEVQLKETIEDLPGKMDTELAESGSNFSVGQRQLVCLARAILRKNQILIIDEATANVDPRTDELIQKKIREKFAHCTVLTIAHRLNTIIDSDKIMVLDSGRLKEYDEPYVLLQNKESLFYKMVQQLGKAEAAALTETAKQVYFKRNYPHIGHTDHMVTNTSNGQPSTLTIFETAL
The test can be described thus: co-IP; cells co-transfected with MPP1 and GFP-ABCC4 or GFP-ABCC4ΔC; immunoprecipitation with GFP-TRAP; blot with anti-MPP1.

Test [2] concerns the target T1, Human ABCC4 with an amino terminal Ac-GFP fusion protein (human). The test can be described thus: proximity ligation; HEK293 cells transfected with ABCC4 or ABCC4ΔC and MPP1, fixed and permeabilized; anti-ABCC4 and anti-MPP1 antibodies, Duolink kit.
For test [3], the target named is T2, N-terminal domain of MPP1 (amino acids 1–83), GST-fusion protein (UniProt Q00013).
T2 sequence: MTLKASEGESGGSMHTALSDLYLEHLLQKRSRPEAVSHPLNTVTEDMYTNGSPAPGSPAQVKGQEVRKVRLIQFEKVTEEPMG
Put plainly: co-IP; purified MPP1 or purified MPP1 fragments incubated with MO7e lysates, immunoprecipitation, blot with an antibody against ABCC4; only the target purified.

The target in test [4] is T3, C-terminal domain of MPP1 containing both the SH3 and GUK domains (amino acids 161–466), GST-fusion protein (UniProt Q00013).
T3 sequence: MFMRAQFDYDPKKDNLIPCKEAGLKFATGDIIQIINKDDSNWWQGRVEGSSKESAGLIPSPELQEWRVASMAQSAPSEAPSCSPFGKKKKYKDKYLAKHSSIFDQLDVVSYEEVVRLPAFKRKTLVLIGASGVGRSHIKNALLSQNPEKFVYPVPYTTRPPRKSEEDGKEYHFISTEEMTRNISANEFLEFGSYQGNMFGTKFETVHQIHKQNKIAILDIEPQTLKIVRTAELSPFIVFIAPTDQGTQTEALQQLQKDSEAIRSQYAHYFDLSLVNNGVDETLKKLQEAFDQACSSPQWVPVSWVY
Described as above.

The target in test [5] is T4, His-S-MPP1 fusion protein (full-length MPP1) (UniProt Q00013).
T4 sequence: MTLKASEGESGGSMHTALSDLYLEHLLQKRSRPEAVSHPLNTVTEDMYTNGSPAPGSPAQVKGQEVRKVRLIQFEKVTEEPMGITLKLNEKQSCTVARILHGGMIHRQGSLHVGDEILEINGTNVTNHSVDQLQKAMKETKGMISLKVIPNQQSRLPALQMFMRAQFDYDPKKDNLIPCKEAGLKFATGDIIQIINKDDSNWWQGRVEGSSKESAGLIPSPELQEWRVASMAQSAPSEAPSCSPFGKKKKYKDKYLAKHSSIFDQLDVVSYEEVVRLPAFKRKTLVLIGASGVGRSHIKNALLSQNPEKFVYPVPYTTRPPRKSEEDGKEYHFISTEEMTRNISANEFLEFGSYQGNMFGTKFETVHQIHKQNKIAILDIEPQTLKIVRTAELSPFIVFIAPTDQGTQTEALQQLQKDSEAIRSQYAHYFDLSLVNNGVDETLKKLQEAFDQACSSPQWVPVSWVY
The test is described as above.

Test [6] has as its target T5, PDZ domain of MPP1 (amino acids 83–160), GST-fusion protein (UniProt Q00013).
T5 sequence: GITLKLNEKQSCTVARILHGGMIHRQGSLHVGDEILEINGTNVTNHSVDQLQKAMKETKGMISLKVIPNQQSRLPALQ
Described as above.

Test [7] has as its target T6, MPP1, endogenous in MO7e cells (human (endogenous in MO7e)) (UniProt Q00013).
T6 sequence: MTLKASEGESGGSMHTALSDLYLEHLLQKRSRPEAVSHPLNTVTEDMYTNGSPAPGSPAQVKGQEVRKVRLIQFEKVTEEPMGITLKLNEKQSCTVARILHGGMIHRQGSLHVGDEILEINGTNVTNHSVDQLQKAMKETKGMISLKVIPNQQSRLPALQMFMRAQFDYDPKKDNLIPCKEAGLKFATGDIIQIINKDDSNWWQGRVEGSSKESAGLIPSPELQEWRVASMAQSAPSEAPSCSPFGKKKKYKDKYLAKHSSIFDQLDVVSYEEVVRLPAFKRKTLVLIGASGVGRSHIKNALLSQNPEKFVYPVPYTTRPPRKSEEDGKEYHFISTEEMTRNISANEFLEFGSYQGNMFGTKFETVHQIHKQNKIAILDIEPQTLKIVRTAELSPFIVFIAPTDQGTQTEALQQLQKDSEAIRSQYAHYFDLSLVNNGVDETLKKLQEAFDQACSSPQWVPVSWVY
Put plainly: proximity ligation; endogenous proteins in the AML cell line MO7e.

Test [8] has as its target T6, MPP1, endogenous in MO7e cells (human (endogenous in MO7e)). The test can be described thus: co-IP; endogenous proteins in MO7e lysate (MPER lysis buffer); antibodies 4 h at 4 °C, protein G-agarose; immunoblot. On the technique in general: Immunoblotting shows a protein as a band on a membrane.

B1: MPP1 expressed from an expression vector in HEK293 cells (protein, UniProt Q00013 1-466)
chain: MTLKASEGESGGSMHTALSDLYLEHLLQKRSRPEAVSHPLNTVTEDMYTNGSPAPGSPAQVKGQEVRKVRLIQFEKVTEEPMGITLKLNEKQSCTVARILHGGMIHRQGSLHVGDEILEINGTNVTNHSVDQLQKAMKETKGMISLKVIPNQQSRLPALQMFMRAQFDYDPKKDNLIPCKEAGLKFATGDIIQIINKDDSNWWQGRVEGSSKESAGLIPSPELQEWRVASMAQSAPSEAPSCSPFGKKKKYKDKYLAKHSSIFDQLDVVSYEEVVRLPAFKRKTLVLIGASGVGRSHIKNALLSQNPEKFVYPVPYTTRPPRKSEEDGKEYHFISTEEMTRNISANEFLEFGSYQGNMFGTKFETVHQIHKQNKIAILDIEPQTLKIVRTAELSPFIVFIAPTDQGTQTEALQQLQKDSEAIRSQYAHYFDLSLVNNGVDETLKKLQEAFDQACSSPQWVPVSWVY
As to B1, the binding result in test [1] and in test [2] was “binds” in each case.

B2: ABCC4, endogenous in MO7e cells (natural protein, human (endogenous in MO7e), UniProt O15439 1-1325, looked up)
chain: MLPVYQEVKPNPLQDANLCSRVFFWWLNPLFKIGHKRRLEEDDMYSVLPEDRSQHLGEELQGFWDKEVLRAENDAQKPSLTRAIIKCYWKSYLVLGIFTLIEESAKVIQPIFLGKIINYFENYDPMDSVALNTAYAYATVLTFCTLILAILHHLYFYHVQCAGMRLRVAMCHMIYRKALRLSNMAMGKTTTGQIVNLLSNDVNKFDQVTVFLHFLWAGPLQAIAVTALLWMEIGISCLAGMAVLIILLPLQSCFGKLFSSLRSKTATFTDARIRTMNEVITGIRIIKMYAWEKSFSNLITNLRKKEISKILRSSCLRGMNLASFFSASKIIVFVTFTTYVLLGSVITASRVFVAVTLYGAVRLTVTLFFPSAIERVSEAIVSIRRIQTFLLLDEISQRNRQLPSDGKKMVHVQDFTAFWDKASETPTLQGLSFTVRPGELLAVVGPVGAGKSSLLSAVLGELAPSHGLVSVHGRIAYVSQQPWVFSGTLRSNILFGKKYEKERYEKVIKACALKKDLQLLEDGDLTVIGDRGTTLSGGQKARVNLARAVYQDADIYLLDDPLSAVDAEVSRHLFELCICQILHEKITILVTHQLQYLKAASQILILKDGKMVQKGTYTEFLKSGIDFGSLLKKDNEESEQPPVPGTPTLRNRTFSESSVWSQQSSRPSLKDGALESQDTENVPVTLSEENRSEGKVGFQAYKNYFRAGAHWIVFIFLILLNTAAQVAYVLQDWWLSYWANKQSMLNVTVNGGGNVTEKLDLNWYLGIYSGLTVATVLFGIARSLLVFYVLVNSSQTLHNKMFESILKAPVLFFDRNPIGRILNRFSKDIGHLDDLLPLTFLDFIQTLLQVVGVVSVAVAVIPWIAIPLVPLGIIFIFLRRYFLETSRDVKRLESTTRSPVFSHLSSSLQGLWTIRAYKAEERCQELFDAHQDLHSEAWFLFLTTSRWFAVRLDAICAMFVIIVAFGSLILAKTLDAGQVGLALSYALTLMGMFQWCVRQSAEVENMMISVERVIEYTDLEKEAPWEYQKRPPPAWPHEGVIIFDNVNFMYSPGGPLVLKHLTALIKSQEKVGIVGRTGAGKSSLISALFRLSEPEGKIWIDKILTTEIGLHDLRKKMSIIPQEPVLFTGTMRKNLDPFNEHTDEELWNALQEVQLKETIEDLPGKMDTELAESGSNFSVGQRQLVCLARAILRKNQILIIDEATANVDPRTDELIQKKIREKFAHCTVLTIAHRLNTIIDSDKIMVLDSGRLKEYDEPYVLLQNKESLFYKMVQQLGKAEAAALTETAKQVYFKRNYPHIGHTDHMVTNTSNGQPSTLTIFETAL
Consider B2, for which the binding entry is listed as “no binding” in test [3]; “no binding” in test [4]; “binds” in test [5]; “binds” in test [6]; “binds” in test [7]; “binds” in test [8].

The record behind these values is paper PMC5691054, “An unexpected protein interaction promotes drug resistance in leukemia” (Nature Communications, 2017).
